This assay deals with binding of Cy3-ASF to lectin spots. The assay can be described thus: Inhibition of lectin-sugar chain interaction on lectin array by competitively inhibiting sugar (Example 1). The note with it: Cy3-ASF probe, increasing inhibiting sugar concentration.

With `OC[C@H]1O[C@@H](O[C@H]2[C@H](O)[C@@H](O)C(O)O[C@@H]2CO)[C@H](O)[C@@H](O)[C@H]1O` (stereo partly shown) [lactose], the “fluorescence intensity of the spots in the presence of inhibiting sugar” value is “decrease as the concentration of inhibiting sugar increased”.

The values are drawn from US8008094B2, “Methods for analyzing interactions between proteins and sugar chains” (National Institute of Advanced Industrial Science and …, priority 2003, dated 2011).
